Measurements from PubChem BioAssay AID1671193 (National Center for Advancing Translational Sciences (NCATS), 2021).
Where “and” joins values, the source holds several entries; their conditions need not be identical. Equal entries are not always repeated. Screen size: about 150,000 compounds; about 180 (0.12%) were called active. The inconclusive results got no clear call from the source; some entries with a clear call stand among them for comparison. Calls follow the shape of the dose curve; as a rule, active = well fitted cell-killing curve with a large enough effect; inconclusive = small, poorly fitted or top-dose-only effect, or effect the other way; inactive = flat fitted curve, though single readings scatter. A potency beside an inconclusive call is a rough fit, not a confirmed value.

Assay: GF-AFC viability counterscreen for inhibitors of alpha-synuclein gene (SNCA) expression; also: nearly all actives have a fitted effect of over 30% in size;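 as to activity change, negative = cytotoxicity: 0% = DMSO-treated cells and -100% = medium-only wells without cells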
Details: HEK-293-SNCA-luc viability, GF-AFC fluorescence, 24 h; activity change, negative = cytotoxicity: at 57.1 µM (top of the series) unless noted
Procedure, shortened: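 HEK-293-SNCA-luc cells (1500/well) plated 24 h, then exposed 24 h to a dilution series; GF-AFC added 30 min at 37C, fluorescence 405/540 nm; normalised to medium-only and DMSO wells, Hill fit.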
Potency is read from the fitted curve at half-maximal effect; tags tell the direction and shape of the fitted curve.

| Structure (SMILES) | Potency | activity change, negative = cytotoxicity |
| --- | --- | --- |
| COc1ccccc1CNC(=O)CCCCn1c(=O)c2ccccc2n(CC(=O)Nc2cc(Cl)ccc2C)c1=O | inconclusive: 3.16 µM [cytotoxic, single point] |  |
| COCC(=O)NC1CCCN(c2ccnc3ccnn23)C1 (stereo unspecified) | inconclusive: 56.2 µM [cytotoxic, single point] |  |
| CN1C[C@@H](NC(=O)c2ccc(F)cc2)C[C@H]1c1nc(-c2ccc(OC(F)(F)F)cc2)no1 |  | inactive: 1.7% |
| Cc1ccc2nc3c(cc(C(=O)NC4CCCCC4)c(=N)n3C(C)C)c(=O)n2c1 | inconclusive: 31.6 µM [rising, single point] |  |
| COc1ccccc1OCC(=O)c1ccc2c(c1)N(CCCC(=O)N1CCC(C)CC1)C(=O)CO2 | inconclusive: 14.1 µM [cytotoxic, partial curve] |  |
| C=C1C(=O)OC2/C=C(\C)CC/C=C(\C=O)C(OC)C(OC(=O)C(C)CC)C12 (stereo unspecified) | inconclusive: 14.7 µM [cytotoxic, single point] |  |
| CN(C)CC(=O)N1CCC2(CC1)NCCc1c2[nH]c2ccccc12 |  | inactive: -0.144% [at 12.5 µM] |
| COc1ccc2cc(C(=O)N3CCC4(CC3)CC(C(=O)N3CCOCC3)N(C)C4)[nH]c2c1 (stereo unspecified) |  | inactive: -1.46% |
| CCN1CCN(C(=O)c2ccc3c(c2)N(Cc2cccc(F)c2)C(=O)c2ccccc2S3)CC1 | inconclusive: 0.562 µM [cytotoxic, partial curve, poor fit] |  |
| CCOC(=O)c1cc(-c2ccc(C)cc2)n(CCC(=O)Nc2ccc(OC)c(OC)c2)c1C | inconclusive: 28.2 µM [cytotoxic, single point] |  |
| O=C(c1ccncc1)N1CCC2(CC1)CN(c1ncccn1)CC2CO (stereo unspecified) |  | inactive: 3.2% |
| O=C(NCc1ccc(Cl)cc1)c1ccc2nnc(-c3cc(C(F)(F)F)cc(C(F)(F)F)c3)n2c1 | inconclusive: 20 µM [cytotoxic, partial curve, poor fit] |  |
| O=C1NCCCN1C1CCN(Cc2ccccc2)CC1 | inconclusive: 12.6 µM [cytotoxic, single point] |  |
| Cc1cccc(-c2nc(SCC(=O)Nc3ccc4c(c3)OCO4)c(-c3ccccc3)[nH]2)c1 | inconclusive: 15.8 µM [cytotoxic, partial curve] |  |
| COC[C@@H]1CN(C(=O)c2c(F)cccc2Cl)C[C@H]1C(N)=O | inconclusive: 3.16 µM [rising, full curve, poor fit] |  |
| O=C(c1cccc(F)c1)N1CCC2(CC1)CN(c1cccc(-c3ccccc3)c1)C2 | inconclusive: 3.55 µM [cytotoxic, full curve, poor fit] |  |
| C=C1C(=O)O[C@H]2C[C@@H](C)[C@@H]3CCC(=O)[C@@]3(C)C[C@H]12 | inconclusive: 37.7 µM [cytotoxic, single point] |  |
| CC#CCn1cc2c3c(cccc31)[C@H](CC(C)C)N[C@H](C(=O)NCCN(C)C)C2 |  | inactive: -12.2% [at 87.6 µM] |
| CCOC(=O)c1ccc(NC(=O)Cc2ccc(-n3c(CC)nc4cccnc43)cc2)cc1 | inconclusive: 39.8 µM [cytotoxic, single point] |  |
| NCc1ccc(-c2cc(C(F)(F)F)ccc2Cl)cc1 |  | inactive: -27.1% |
| CC(C)=CCCC1(C)/C=C/C(OC(=O)C=C(C)C)C(C)(O)/C=C/C(=O)/C(CO)=C\C1 (stereo unspecified) | active: 13 µM |  |

| Structure (SMILES) | Potency | activity change, negative = cytotoxicity |
| --- | --- | --- |
| COc1ccc(C[C@H](N)C(=O)N[C@H]2[C@@H](O)[C@H](n3cnc4c(N(C)C)ncnc43)O[C@@H]2CO)cc1 | inconclusive: 21.2 µM [cytotoxic, partial curve, poor fit] |  |
| O=C(c1cccc(Cl)c1)N1CCC2(C1)C(=O)N(CCc1ccccc1)c1ccccc12 (stereo unspecified) | inconclusive: 10 µM [cytotoxic, partial curve, poor fit] and inconclusive: 25.1 µM [cytotoxic, single point] |  |
| O=C1CC2(CCN(Cc3cccnc3)CC2)Oc2cc(Cl)ccc21 |  | inactive: -6.55% |
| COCC(C)NC(=O)c1csc2nc(-c3cccc(C(F)(F)F)c3)cn12 (stereo unspecified) |  | inactive: 0.0307% |
| COC[C@@H]1CN(C(=O)COc2cccc(C)c2)C[C@H]1c1nc(C)no1 | inconclusive: 31.6 µM [cytotoxic, single point] |  |
| COc1ccc(NC(=O)C2(C)CN(C)Cc3ccc(Nc4cccc(OC)c4)nc32)cc1 (stereo unspecified) |  | inactive: -18.7% [at 87.6 µM] |
| Cc1ccc(-c2c3c(=O)n(C)c(=O)n(C)c3c3c(C(F)(F)F)nc4ccccc4n23)cc1 | inconclusive: 22.4 µM [rising, partial curve] |  |
| OC(CC1c2ccccc2-c2cncn21)C1CCCCC1 (stereo unspecified) | inconclusive: 29.9 µM [cytotoxic, single point] |  |
| Cn1ccc(C(=O)N2CC(CNc3ccccc3)C3(C2)CN(c2ccccc2)C3)n1 (stereo unspecified) |  | inactive: -13.5% [at 87.6 µM] |
| CCN(CC)c1ccc(-n2nc3cc(C)c(NC(=O)c4ccccc4F)cc3n2)cc1 | inconclusive: 7.94 µM [rising, partial curve] |  |
| O=C(c1ccc(N2CC[C@H](O)C2)nc1)N1CCC(N2CCOCC2)CC1 |  | inactive: -8.55% |
| CCS(=O)(=O)NCC(c1ccco1)N1CCN(c2ccc(OC)cc2)CC1 (stereo unspecified) | inconclusive: 22.4 µM [rising, partial curve, poor fit] |  |
| Cc1nn(CCC#N)c(C)c1[C@@H]1C=C[C@@H](NCc2ccc(F)cc2)C1 |  | inactive: -4.76% [at 87.6 µM] |
| Cc1ccccc1C(=O)N1CCC2(CC1)CN(c1ncccn1)CC2CO (stereo unspecified) |  | inactive: 1.29% |
| O=C(NCc1ccc2c(c1)OCO2)C1CCN(c2nccc(Nc3ccccc3Cl)n2)CC1 |  | inactive: 8.35% [at 12.5 µM] |
| Cc1ccccc1-c1[nH]nc2ncc(-c3cnn(C)c3)nc12 |  | inactive: -11.7% [at 87.6 µM] |
| COc1ccc(OCC2(C)COc3ccc(C(=O)Nc4ccn(C)n4)cc3N2)cc1 (stereo unspecified) | inconclusive: 12.6 µM [cytotoxic, single point] |  |
| Cc1cccc(-c2nc3cnccn3c2NCCC(=O)NCc2ccc3c(c2)OCO3)c1 | inconclusive: 28.2 µM [rising, single point] |  |
| COc1ccc(-c2nc3ccccc3s2)cc1NC(=O)c1cc2ccccc2o1 | inconclusive: 14.1 µM [rising, partial curve, poor fit] |  |
| Cc1ccc(C(=O)Nc2nc3n(n2)C(c2ccccc2)C=C(c2ccccc2)N3)cc1 (stereo unspecified) | inconclusive: 25.1 µM [rising, partial curve] |  |
